Results from the RNAGym collection of RNA variant scans (doi:10.1093/nar/gkz1192).
The source gives no read counts; variants with many changes may rest on few reads.

B1: CPEB3 Ribozyme (parent)
chain: UAACAGGGGGCCACAGCAGAAGCGUUCACGUCGCAGCCCCUGUCAGAUUCUGGUGAAUCUGCGAAUUCUGCUGUAUAUCUC

Variants of: B1
Assay: self-cleavage, relative activity (ratio to wild type); higher = more cleavage; in vitro, sequencing
In short: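 Relative activity compares each variant's cleaved/total read fraction with that of the unmutated ribozyme. To get these fractions, barcoded CPEB3 ribozyme libraries from rounds of error-prone PCR were transcribed with T7 RNA polymerase for 5 hours at 37°C and then given 15 min of DNase I treatment before EDTA was added. The RNAs were reverse transcribed with template switching and sequenced on Illumina, and DNA sequencing linked barcodes to variants. A minimum of 5 reads applied, and three batches were averaged.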

**Q.** For UAACAGGGGGCCACAGCAGAAGCGUUCACGUCGCGGCCCCUGUCGGAUUCUGGUGAAUCUGCGAAUUCUGCUGUGUAUCUC, which self-cleavage is on record?
**A.** 1.25

**Q.** For UAACAGGGGGCCACAGCAGAAGCGUUCACGUCGCGGCCCCUGUCAGAUUCUGGUGGAUCUGCGAAUUCUGCUGUAUAUCGC, which self-cleavage is on record?
**A.** 1.29

**Q.** Which self-cleavage does the source give for UAACAGGGGGCCACAGCAGAAGCGUUCACGUCGCCGCCCCCGUCAGAUUCUGGUGAAUCUGCGAAUUCUGCCGUAUAUCCC here?
**A.** 1.18

**Q.** With UAACAGGGGGCCACAGCAGAAGCGUUCACGUCGCCGCCCCUGUCAGAUUCUGGUGAGUCUGCGAAUUCUGCUGUACGUCUC as the variant, how does the self-cleavage read?
**A.** 0.96

**Q.** Which self-cleavage does the source give for UAACAGGGGGCCACAGCAGAAGCGUUCACGUCGCCGCCCCUGUCAGAUACUGGUGGAUCUGCGAAUUCUGCUGUAUAUCUC here?
**A.** 0.34

**Q.** With UAACAGGGGGCCACAGCAGAAGCGUUCACGUCGCGGCCCCUGUCAGGAUCUGGUGAAUCUGCGAAUUCUGCUGUAUAUCUC as the variant, how does the self-cleavage read?
**A.** 0.7

**Q.** For UAACAGGGGGCCACAGCAGAAGCGUUCACGUCGCGGCCCCUGUCAGAUUCUGGUGUAUCUGCGAAUUCUGCAGUACAUCUC, which self-cleavage is on record?
**A.** 1.15

**Q.** Which self-cleavage does the source give for UAACAGGGGGCCACAGCAGAAGCGUUCACGUCGCGGCCCCUGUCAGAUUCUGGUGAAUCUGCGGGUUCCGCUGUAUAUCUC here?
**A.** 0.49

**Q.** For UAACAGGGGGCCACAGCAGAAGCGUUCACGUCGCGGCCCCUGUCGGAUUCCGGUGAAUCUGCGAAUUCUGCUGUAAAUCUC, which self-cleavage is on record?
**A.** 1.22

**Q.** With UAACAGGGGGCCACAGCAGAAGCGUUCACGUCGCGGCCCCUGUCAGGUUCAGGUGAGUCUGCGAAUUCUGCUGUAUAUCUC as the variant, how does the self-cleavage read?
**A.** 1.2

**Q.** With UAACAGGGGGCCACAGCAGAAGCGUUCACGUCGCGGCCCCUGUCAGGUUCAGGUGAGCCUGCGAAUUCUGCUGUAUAUCUC as the variant, how does the self-cleavage read?
**A.** 1.26

**Q.** With UAACAGGGGGCCACAGCAGAAGCGUUCACGUCGCGGCCCCUGUCCGAUUCUGGUGAGUCUGCGAAUUCUGCUGUAUAUCUC as the variant, how does the self-cleavage read?
**A.** 0.94

**Q.** For UAACAGGGGGCCACAGCAGAAGCGUUCACGUCGCCGCCCCCGUCAGAUUCUGGUGAAUCUACGAAUUCUGCCGUAUAUCUC, which self-cleavage is on record?
**A.** 0.71

**Q.** For UAACAGGGGGCCACAGCAGAAGCGUUCACGUCGCGGCCCCUGUCAGGUUCUGGUGAAUCUGCGUAUUCUGCUGUAUAUCUC, which self-cleavage is on record?
**A.** 1.19

**Q.** For UAACAGGGGGCCACAGCAGAAGCGUUCACGUCGCGGCCCCUGUCAGGUCCUGGAGAAUCUGCGAAUUCUGCUGUAUAUCUC, which self-cleavage is on record?
**A.** 0.68

**Q.** With UAACAGGGGGCCACAGCAGAAGCGUUCACGUCGCGGCCCCUGUCGGUUUCCGGAGAAUCUGCGAAUUCUGCUGAAUAUCUC as the variant, how does the self-cleavage read?
**A.** 1.13

**Q.** With UAACAGGGGGCCACAGCAGAAGCGUUCACGUCGCGGCCCCUGUCUGAUUCUGGUGAAUCUGCGAGUUCUGCUGUAUAUCUC as the variant, how does the self-cleavage read?
**A.** 0.67

**Q.** Which self-cleavage does the source give for UAACAGGGGGCCACAGCAGAAGCGUUCACGUCGCGGCCCCUGUCAGGUUCUGGUGAAUCUGCGAACUCUGCUGUAUAUCUC here?
**A.** 1.15

**Q.** Which self-cleavage does the source give for UAACAGGGGGCCACAGCAGAAGCGUUCACGUCGCGGCCCCUGUCAGAUUCUGGUGUUUCUGCGAAUUCUGCUGUAUAUCUC here?
**A.** 1.16

**Q.** For UAACAGGGGGCCACAGCAGAAGCGUUCACGUCGCCGCCCCUGUCAGAUUCUGGUGAAUCUGCGAAUUCGGCUGUACAUCUC, which self-cleavage is on record?
**A.** 0.51

**Q.** Which self-cleavage does the source give for UAACAGGGGGCCACAGCAGAAGCGUUCACGUCGCCGCCCCUGUCAGAUUCUGGUGAAACUGCGUAUUCUGCUGUAUAUCUC here?
**A.** 0.18

**Q.** With UAACAGGGGGCCACAGCAGAAGCGUUCACGUCGCGGCCCCUGUCAGGUUCCGGUGAAUCUGCGAAUUCUGCUGUAUAUCCC as the variant, how does the self-cleavage read?
**A.** 1.29

**Q.** Which self-cleavage does the source give for UAACAGGGGGCCACAGCAGAAGCGUUCACGUCGCCGCCCCUGUCAGAUACUGGUGAAACUGCGAAUUCUGCUGUAUAUCUC here?
**A.** 0.17

**Q.** For UAACAGGGGGCCACAGCAGAAGCGUUCACGUCGCCGCCCUUGUCAGAUUCUGGUGAAUCUGCGAAUUCUGCUAUGUAUCUC, which self-cleavage is on record?
**A.** 1.29

**Q.** For UAACAGGGGGCCACAGCAGAAGCGUUCACGUCGCGGCCCCUGUCAGAUUCUGGUGAAUCUGCGGAUUCUGCUGUAUGCCUC, which self-cleavage is on record?
**A.** 1.31

**Q.** With UAACAGGGGGCCACAGCAGAAGCGUUCACGUCGCGGCCCCUGUCGGAUUCUGGUGAGUCUGCGAAUUCUGCUGUAUAUCUC as the variant, how does the self-cleavage read?
**A.** 1.22

**Q.** With UAACAGGGGGCCACAGCAGAAGCGUUCACGUCGCGGCCCCUGUCAGGUUCUGGUGAAUCUGCGAAUCCUGCUGUAUAUCUC as the variant, how does the self-cleavage read?
**A.** 0.47

**Q.** For UAACAGGGGGCCACAGCAGAAGCGUUCACGUCGCGGCCCCUGUCAGAUUCUGGUGAGUCUGCGAAUUCUGCUGUAUAUCUA, which self-cleavage is on record?
**A.** 1.46

**Q.** For UAACAGGGGGCCACAGCAGAAGCGUUCACGUCGCCGCCCCUGUCAGAUUCUGGUGUAUCUGCGAAUUCCGCUGUAUAUCUC, which self-cleavage is on record?
**A.** 0.48

**Q.** Which self-cleavage does the source give for UAACAGGGGGCCACAGCAGAAGCGUUCACGUCGCGGCCCCUGUCGGAUUCUGGCGAAUCUGCGAAUUCUGCUGUAUAUCUC here?
**A.** 1.33

**Q.** Which self-cleavage does the source give for UAACAGGGGGCCACAGCAGAAGCGUUCACGUCGCGGCCCCUGUCAGAUUCUGGUGAUUCUGCGAAUUCGGCUGUAUAUCUC here?
**A.** 0.49

**Q.** With UAACAGGGGGCCACAGCAGAAGCGUUCACGUCGCGGCCCCUGUCGGAUUCCGGUGAAUCUGCGAAUUCCGCUGCUUAUCUC as the variant, how does the self-cleavage read?
**A.** 0.86

**Q.** Which self-cleavage does the source give for UAACAGGGGGCCACAGCAGAAGCGUUCACGUCGCGGCCCCUGUCCGAUUCUGGUGAAUCUGCGAAUUCUGCCGUAUAUCUC here?
**A.** 0.97

**Q.** With UAACAGGGGGCCACAGCAGAAGCGUUCACGUCGCGGCCCCUGUCAGUUUCUGGUGGUUCUGCGAAUUCCGCUGUAUAUCUC as the variant, how does the self-cleavage read?
**A.** 0.17
